# Data reported in the supplement of paper PMC8728848.
# The list shows a part of the results.
# What was measured:
# Experiment in all cases: glycan array binding signal (z-score within array); higher = stronger binding
# Conditions in all cases: glycan notation: IUPAC condensed, linker removed
# [1] = molecular target: Gal(b1-4)GlcNAc(b1-2)[Gal(b1-4)GlcNAc(b1-6)]Man(a1-6)[Gal(b1-4)GlcNAc(b1-2)Man(a1-3)]Man(b1-4)GlcNAc(b1-4)[Fuc(a1-6)]GlcNAc
# Procedure, shortened: (§1)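 The binding signal is a Z-score computed within each array and averaged over linkers. Arrays of the same protein sequence at different concentrations or buffers were also averaged together. Data originate from 3228 arrays in the Consortium for Functional Glycomics database, kept only where the protein sequence was available.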
# [2] = molecular target: Gal(b1-4)GlcNAc(b1-2)[Gal(b1-4)GlcNAc(b1-6)]Man(a1-6)[GlcNAc(b1-4)][Gal(b1-4)GlcNAc(b1-2)Man(a1-3)]Man(b1-4)GlcNAc(b1-4)GlcNAc
# Procedure, shortened: as §1
# [3] = molecular target: Gal(b1-4)GlcNAc(b1-2)[Gal(b1-4)GlcNAc(b1-6)]Man(a1-6)[GlcNAc(b1-4)][Gal(b1-4)GlcNAc(b1-2)[Gal(b1-4)GlcNAc(b1-4)]Man(a1-3)]Man(b1-4)GlcNAc(b1-4)[Fuc(a1-6)]GlcNAc
# Procedure, shortened: as §1
# [4] = molecular target: Gal(b1-4)GlcNAc(b1-3)Gal(b1-3)GalNAc
# Procedure, shortened: as §1
# [5] = molecular target: Gal(b1-4)GlcNAc(b1-3)Gal(b1-3)GlcNAc
# Procedure, shortened: as §1
# [6] = molecular target: Gal(b1-4)GlcNAc(b1-3)Gal(b1-4)Glc
# Procedure, shortened: as §1
# [7] = molecular target: Gal(b1-4)GlcNAc(b1-3)Gal(b1-4)GlcNAc
# Procedure, shortened: as §1
# [8] = molecular target: Gal(b1-4)GlcNAc(b1-3)Gal(b1-4)GlcNAc(b1-2)Man(a1-3)[Gal(b1-4)GlcNAc(b1-3)Gal(b1-4)GlcNAc(b1-2)Man(a1-6)]Man(b1-4)GlcNAc(b1-4)GlcNAc
# Procedure, shortened: as §1
# [9] = molecular target: Gal(b1-4)GlcNAc(b1-3)Gal(b1-4)GlcNAc(b1-2)Man(a1-3)[Gal(b1-4)GlcNAc(b1-3)Gal(b1-4)GlcNAc(b1-2)Man(a1-6)]Man(b1-4)GlcNAc(b1-4)[Fuc(a1-6)]GlcNAc
# Procedure, shortened: as §1
# [10] = molecular target: Gal(b1-4)GlcNAc(b1-3)Gal(b1-4)GlcNAc(b1-2)[Gal(b1-4)GlcNAc(b1-3)Gal(b1-4)GlcNAc(b1-6)]Man(a1-6)[Gal(b1-4)GlcNAc(b1-3)Gal(b1-4)GlcNAc(b1-2)Man(a1-3)]Man(b1-4)GlcNAc(b1-4)GlcNAc
# Procedure, shortened: as §1
# [11] = molecular target: Gal(b1-4)GlcNAc(b1-3)Gal(b1-4)GlcNAc(b1-2)[Gal(b1-4)GlcNAc(b1-3)Gal(b1-4)GlcNAc(b1-6)]Man(a1-6)[Gal(b1-4)GlcNAc(b1-3)Gal(b1-4)GlcNAc(b1-2)Man(a1-3)]Man(b1-4)GlcNAc(b1-4)[Fuc(a1-6)]GlcNAc
# Procedure, shortened: as §1
# [12] = molecular target: Gal(b1-4)GlcNAc(b1-3)Gal(b1-4)GlcNAc(b1-3)Gal(b1-4)GlcNAc
# Procedure, shortened: as §1
# [13] = molecular target: Gal(b1-4)GlcNAc(b1-3)Gal(b1-4)GlcNAc(b1-3)Gal(b1-4)GlcNAc(b1-2)Man(a1-3)[Gal(b1-4)GlcNAc(b1-3)Gal(b1-4)GlcNAc(b1-3)Gal(b1-4)GlcNAc(b1-2)Man(a1-6)]Man(b1-4)GlcNAc(b1-4)GlcNAc
# Procedure, shortened: as §1
# [14] = molecular target: Gal(b1-4)GlcNAc(b1-3)Gal(b1-4)GlcNAc(b1-3)Gal(b1-4)GlcNAc(b1-2)Man(a1-3)[Gal(b1-4)GlcNAc(b1-3)Gal(b1-4)GlcNAc(b1-3)Gal(b1-4)GlcNAc(b1-2)Man(a1-6)]Man(b1-4)GlcNAc(b1-4)[Fuc(a1-6)]GlcNAc
# Procedure, shortened: as §1
# [15] = molecular target: Gal(b1-4)GlcNAc(b1-3)Gal(b1-4)GlcNAc(b1-3)Gal(b1-4)GlcNAc(b1-2)[Gal(b1-4)GlcNAc(b1-3)Gal(b1-4)GlcNAc(b1-3)Gal(b1-4)GlcNAc(b1-6)]Man(a1-6)[Gal(b1-4)GlcNAc(b1-3)Gal(b1-4)GlcNAc(b1-3)Gal(b1-4)GlcNAc(b1-2)Man(a1-3)]Man(b1-4)GlcNAc(b1-4)[Fuc(a1-6)]GlcNAc
# Procedure, shortened: as §1
# [16] = molecular target: Gal(b1-4)GlcNAc(b1-3)Gal(b1-4)GlcNAc(b1-3)Gal(b1-4)GlcNAc(b1-3)Gal(b1-4)GlcNAc(b1-2)Man(a1-3)[Gal(b1-4)GlcNAc(b1-3)Gal(b1-4)GlcNAc(b1-3)Gal(b1-4)GlcNAc(b1-3)Gal(b1-4)GlcNAc(b1-2)Man(a1-6)]Man(b1-4)GlcNAc(b1-4)GlcNAc
# Procedure, shortened: as §1
# [17] = molecular target: Gal(b1-4)GlcNAc(b1-3)Gal(b1-4)GlcNAc(b1-3)Gal(b1-4)GlcNAc(b1-3)Gal(b1-4)GlcNAc(b1-2)Man(a1-3)[Gal(b1-4)GlcNAc(b1-3)Gal(b1-4)GlcNAc(b1-3)Gal(b1-4)GlcNAc(b1-3)Gal(b1-4)GlcNAc(b1-2)Man(a1-6)]Man(b1-4)GlcNAc(b1-4)[Fuc(a1-6)]GlcNAc
# Procedure, shortened: as §1
# [18] = molecular target: Gal(b1-4)GlcNAc(b1-3)Gal(b1-4)GlcNAc(b1-3)Gal(b1-4)GlcNAc(b1-3)Gal(b1-4)GlcNAc(b1-2)[Gal(b1-4)GlcNAc(b1-3)Gal(b1-4)GlcNAc(b1-3)Gal(b1-4)GlcNAc(b1-3)Gal(b1-4)GlcNAc(b1-6)]Man(a1-6)[Gal(b1-4)GlcNAc(b1-3)Gal(b1-4)GlcNAc(b1-3)Gal(b1-4)GlcNAc(b1-3)Gal(b1-4)GlcNAc(b1-2)Man(a1-3)]Man(b1-4)GlcNAc(b1-4)[Fuc(a1-6)]GlcNAc
# Procedure, shortened: as §1
# [19] = molecular target: Gal(b1-4)GlcNAc(b1-3)Gal(b1-4)GlcNAc(b1-3)Gal(b1-4)GlcNAc(b1-3)Gal(b1-4)GlcNAc(b1-3)Gal(b1-4)GlcNAc(b1-2)Man(a1-3)[Gal(b1-4)GlcNAc(b1-3)Gal(b1-4)GlcNAc(b1-3)Gal(b1-4)GlcNAc(b1-3)Gal(b1-4)GlcNAc(b1-3)Gal(b1-4)GlcNAc(b1-2)Man(a1-6)]Man(b1-4)GlcNAc(b1-4)GlcNAc
# Procedure, shortened: as §1
# [20] = molecular target: Gal(b1-4)GlcNAc(b1-3)Gal(b1-4)GlcNAc(b1-3)Gal(b1-4)GlcNAc(b1-3)Gal(b1-4)GlcNAc(b1-3)Gal(b1-4)GlcNAc(b1-2)Man(a1-3)[Gal(b1-4)GlcNAc(b1-3)Gal(b1-4)GlcNAc(b1-3)Gal(b1-4)GlcNAc(b1-3)Gal(b1-4)GlcNAc(b1-3)Gal(b1-4)GlcNAc(b1-2)Man(a1-6)]Man(b1-4)GlcNAc(b1-4)[Fuc(a1-6)]GlcNAc
# Procedure, shortened: as §1
# [21] = molecular target: Gal(b1-4)GlcNAc(b1-3)Gal(b1-4)GlcNAc(b1-3)Gal(b1-4)GlcNAc(b1-3)Gal(b1-4)GlcNAc(b1-3)Gal(b1-4)GlcNAc(b1-2)[Gal(b1-4)GlcNAc(b1-3)Gal(b1-4)GlcNAc(b1-3)Gal(b1-4)GlcNAc(b1-3)Gal(b1-4)GlcNAc(b1-3)Gal(b1-4)GlcNAc(b1-6)]Man(a1-6)[Gal(b1-4)GlcNAc(b1-3)Gal(b1-4)GlcNAc(b1-3)Gal(b1-4)GlcNAc(b1-3)Gal(b1-4)GlcNAc(b1-3)Gal(b1-4)GlcNAc(b1-2)Man(a1-3)]Man(b1-4)GlcNAc(b1-4)[Fuc(a1-6)]GlcNAc
# Procedure, shortened: as §1
# [22] = molecular target: Gal(b1-4)GlcNAc(b1-3)Gal(b1-4)GlcNAc(b1-3)Gal(b1-4)GlcNAc(b1-3)Gal(b1-4)GlcNAc(b1-3)Gal(b1-4)GlcNAc(b1-3)Gal(b1-4)GlcNAc(b1-2)Man(a1-3)[Gal(b1-4)GlcNAc(b1-3)Gal(b1-4)GlcNAc(b1-3)Gal(b1-4)GlcNAc(b1-3)Gal(b1-4)GlcNAc(b1-3)Gal(b1-4)GlcNAc(b1-3)Gal(b1-4)GlcNAc(b1-2)Man(a1-6)]Man(b1-4)GlcNAc(b1-4)GlcNAc
# Procedure, shortened: as §1
# [23] = molecular target: Gal(b1-4)GlcNAc(b1-3)Gal(b1-4)GlcNAc(b1-3)GalNAc
# Procedure, shortened: as §1
binder,measurement,setting,value
"SSR1 (Sclerotium rolfsii), A0A0M3KL30 (protein) TYKITVRVYQTNPDAFFHPVEKTVWKYANGGTWTITDDQHVLTMGGSGTSGTLRFHADNGESFTATFGVHNYKRWCDIVTNLAADETGMVINQQYYSQKNREEARERQLSNYQVKNAKGRNFQIVYTEAEGNDLHANLIIG",glycan array binding signal (z-score),[1],-0.332
same,glycan array binding signal (z-score),[2],-0.336
same,glycan array binding signal (z-score),[3],-0.344
same,glycan array binding signal (z-score),[4],1.12
same,glycan array binding signal (z-score),[5],-0.338
same,glycan array binding signal (z-score),[6],-0.339
same,glycan array binding signal (z-score),[7],-0.336
same,glycan array binding signal (z-score),[8],-0.269
same,glycan array binding signal (z-score),[9],-0.323
same,glycan array binding signal (z-score),[10],-0.184
same,glycan array binding signal (z-score),[11],-0.332
same,glycan array binding signal (z-score),[12],-0.336
same,glycan array binding signal (z-score),[13],-0.278
same,glycan array binding signal (z-score),[14],-0.301
same,glycan array binding signal (z-score),[15],-0.33
same,glycan array binding signal (z-score),[16],-0.333
same,glycan array binding signal (z-score),[17],-0.316
same,glycan array binding signal (z-score),[18],-0.314
same,glycan array binding signal (z-score),[19],-0.316
same,glycan array binding signal (z-score),[20],-0.319
same,glycan array binding signal (z-score),[21],-0.282
same,glycan array binding signal (z-score),[22],-0.314
same,glycan array binding signal (z-score),[23],0.602
